# PubChem BioAssay AID588342 (National Center for Advancing Translational Sciences (NCATS), 2011)
# Values joined by “and” are separate entries in the source; they are usually repeats but may differ in a detail not shown here. Equal entries are not always repeated. Among all 360,000 compounds or so, about 25,000 (6.9%) were called active. The inconclusive results got no clear call from the source; some entries with a clear call stand among them for comparison. Calls come from the whole dose curve; as a rule, active = well fitted inhibition curve with a large enough effect; inconclusive = small, poorly fitted or top-dose-only effect; inactive = flat fitted curve, though single readings scatter. Potencies of inconclusive entries are doubtful fits and often do not repeat.
# Biological target: Luciferin 4-monooxygenase (Photinus pyralis) (UniProt P08659)
# Experiment: qHTS profiling assay for firefly luciferase inhibitor/activator using purifed enzyme and Km concentrations of substrates (counterscreen for miR-21 project); note: nearly all actives have a fitted effect of over 55% in size;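 for activity change, negative = inhibition: plate controls were vehicle for no effect and reference inhibitor for full effect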
# Conditions: purified FLuc, luminescence inhibition; series mostly up to 57.5 µM; activity change, negative = inhibition: at the top concentration
# In short: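 Biochemical qHTS of compounds, final roughly 60 µM downward over six points, against 10 nM purified firefly luciferase using Km concentrations of substrates (10 uM D-luciferin, 10 uM ATP) in Tris acetate pH 7.5 buffer; luminescence output.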
# Potency is the fitted concentration of half-maximal effect; tags give direction and shape of the fitted curve.
# UniProt P08659, sequence (P08659 whole entry, looked up): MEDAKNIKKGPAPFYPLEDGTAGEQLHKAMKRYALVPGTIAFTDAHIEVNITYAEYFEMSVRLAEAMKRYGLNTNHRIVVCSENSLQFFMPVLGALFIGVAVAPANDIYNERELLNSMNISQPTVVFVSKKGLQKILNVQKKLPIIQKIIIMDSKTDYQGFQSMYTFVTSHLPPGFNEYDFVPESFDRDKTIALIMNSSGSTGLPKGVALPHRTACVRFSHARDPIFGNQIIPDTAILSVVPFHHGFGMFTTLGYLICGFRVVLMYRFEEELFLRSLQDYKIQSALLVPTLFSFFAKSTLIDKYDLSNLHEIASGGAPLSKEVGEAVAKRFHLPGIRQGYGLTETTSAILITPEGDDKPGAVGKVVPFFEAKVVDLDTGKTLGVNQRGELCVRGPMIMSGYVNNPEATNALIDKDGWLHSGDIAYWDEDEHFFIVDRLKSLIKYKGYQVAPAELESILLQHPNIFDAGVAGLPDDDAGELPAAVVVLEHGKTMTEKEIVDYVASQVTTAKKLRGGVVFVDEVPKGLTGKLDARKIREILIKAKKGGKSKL
SMILES,Potency,"activity change, negative = inhibition"
CCN(CC)c1ccc2nc3ccc(N)cc3[n+](-c3ccccc3)c2c1,active: 13.5 µM,
Cc1cccc(-c2cc(C(=O)Nc3ccncc3)c3ccccc3n2)c1,active: 23.9 µM,
Cc1cc2oc(C(=O)N(Cc3ccccc3)C3CCS(=O)(=O)C3)cc(=O)c2cc1C (stereo not drawn),,inactive: 1.99%
CCOc1ccc(S(=O)(=O)n2nc(C)c(S(=O)(=O)N3CCCCCC3)c2C)cc1,,inactive: -9.54%
CN1CCN(c2ncc3c(n2)CCN(Cc2ccccc2Cl)C3)CC1,,inactive: -5.56%
O=C(Nc1nc(-c2ccccc2)cs1)c1ccc(=O)[nH]c1,"inconclusive: 21.3 µM [inhibitor, single point]",
CN(C(=O)c1ccc(NC(=O)Cc2ccc(NC(=O)C3CCN(C(=O)C4CCC4)CC3)cc2)cc1)C1CC1,"inconclusive: 25.1 µM [inhibitor, single point]",
CCOc1cc(/C=N/NC(=O)c2cccnc2)ccc1O,,inactive: -1.54%
Cc1cc(NC(=O)c2cnn3cccnc23)no1,"inconclusive: 23.9 µM [inhibitor, single point]",
COc1cccc(C(=O)Nc2ccc3c(c2)CCCN3C(=O)c2cccs2)c1OC,active: 21.3 µM and active: 9.53 µM,
Cc1ccc(NC(=O)CN2C(=O)C(c3ccccc3)=NC2(C)C)cc1C,,inactive: -10.8%
CCCc1ccc(OCc2ccc(C(=O)N/N=C/c3cccnc3)o2)cc1,"inconclusive: 21.3 µM [inhibitor, partial curve]",
CN1c2ccccc2-c2nc3ccccc3n2C1c1ccco1 (stereo not drawn),"inconclusive: 7.57 µM [inhibitor, partial curve, poor fit]",
COc1ccc2oc(-c3ccc(C)c(NC(=O)c4ccc(N5CCCCC5)c([N+](=O)[O-])c4)c3)nc2c1,,inactive: -11.1%
O=C(c1cc2c(s1)CCC2)N1CCN(c2ccccc2)CC1,,inactive: -9.22%
O=C(Cc1cccs1)N/N=C/c1ccccn1,,inactive: -12.8%
COC(=O)[C@@H](NC(=O)O[C@H]1C(=O)c2ccc(OC)cc2O[C@@H]1c1ccc2c(c1)OCO2)C(C)C,"inconclusive: 23.9 µM [inhibitor, single point]",
Cc1ccc(OCc2nnc(N)s2)cc1,"inconclusive: 26.9 µM [inhibitor, partial curve, poor fit]",
CC(C)(C)C(=O)Cn1ncc(Br)c(Br)c1=O,,inactive: -1.52%
COc1cccc(Cn2c(SCc3ccc(C(=O)N4CCC(C)CC4)cc3)nc3ccncc32)c1,"inconclusive: 30.1 µM [inhibitor, partial curve, poor fit]",
Cc1ccn2c(Nc3ccc4c(c3)OCO4)c(-c3ccco3)nc2c1,active: 6.01 µM,
Cc1ccc(C(=O)NC2CCCCC2)cc1S(=O)(=O)N1CCCC1,"inconclusive: 42.6 µM [inhibitor, partial curve, poor fit]",
N#CC1=C2SCN(Cc3ccco3)CN2C(=O)CC1c1c(F)cccc1Cl (stereo not drawn),"inconclusive: 37.9 µM [inhibitor, partial curve, poor fit]",
COc1ccc(CCN(C)C(=O)C2CCCN(C3CCN(Cc4ccccc4)CC3)C2)cc1OC (stereo not drawn),,inactive: 1.52%

SMILES,Potency,"activity change, negative = inhibition"
CCN(CC)c1ccc(/C=N\NC(N)=O)cc1,"inconclusive: 23.9 µM [inhibitor, single point]",
O=C(Nc1ccc(Cl)cc1)Nc1csc([N+](=O)[O-])c1,"inconclusive: 26.9 µM [inhibitor, single point]",
O=C(Oc1ccc2ccccc2c1)c1ccccc1,active: 2.39 µM,
Cc1ccc(NC(=O)Cc2nc(COC(=O)C(C)NS(=O)(=O)c3ccc(C)cc3)cs2)cc1 (stereo not drawn),"inconclusive: 30.1 µM [inhibitor, single point]",
COc1ccc([N+](=O)[O-])cc1NC(=O)C1C2C=CC(C2)C1C(=O)O (stereo not drawn),,inactive: -2.45%
COc1cc(CNc2ncn[nH]2)ccc1OCc1ccccc1C,"inconclusive: 37.9 µM [inhibitor, single point]",
N#Cc1ccccc1CSc1nnc(-c2ccccc2)o1,active: 3.79 µM,
COc1cccc(NC(=O)c2cnn(-c3ccccc3)c2C)c1,active: 1.51 µM,
COc1ccc(N(CC(=O)Nc2cccc(SC)c2)S(C)(=O)=O)cc1,"inconclusive: 37.9 µM [inhibitor, single point]",
O=C(CSc1ncnc2ccccc12)c1ccco1,active: 3.01 µM,
CCOCCCNC(=O)c1ccc(/C=C2\Oc3ccccc3N(C)C2=O)cc1,"inconclusive: 23.9 µM [inhibitor, single point]",
CCOCCCNC(=O)c1c(NC(=O)c2cc(=O)c3cc(C)c(C)cc3o2)sc2c1CCC2,,inactive: 0.617%
COc1ccc(CCNC(=O)C(C)n2nc(C)n3c(cc4occc43)c2=O)cc1OC (stereo not drawn),,inactive: 2.55%
CCOc1ccc(-c2nn[nH]n2)cc1OCC,,inactive: 1.18%
Cc1cc(=O)oc2cc(NC(=O)c3ccccc3Cl)ccc12,active: 10.7 µM,
CC(C)Oc1ccc(CCC(=O)N/N=C/c2ccc3c(c2)OCO3)cc1,"inconclusive: 42.6 µM [inhibitor, partial curve, poor fit]",
O=C(c1cc2cc(Cl)ccc2[nH]1)N1CCCCC1,"inconclusive: 26.9 µM [inhibitor, partial curve, poor fit]",
COc1ccc(NC(=O)CN(C)C(=O)c2cc3c(s2)CCCCC3)cc1,"inconclusive: 21.3 µM [inhibitor, partial curve, poor fit]",
CCOC(=O)Nc1cccc(OCC(=O)Nc2ccccc2OC)c1,"inconclusive: 23.9 µM [inhibitor, partial curve, poor fit]",
O=C1C=C(Nc2ccc(Cl)cc2Cl)CC(c2ccco2)C1 (stereo not drawn),"inconclusive: 37.9 µM [inhibitor, partial curve, poor fit]",
O=C(NC1=NCCS1)c1cc(-c2ccc(F)cc2)nc2ccccc12,active: 5.36 µM,
Cc1ccc(CC2CC(=O)N(c3nc4ccccc4s3)C2=O)cc1 (stereo not drawn),active: 26.9 µM,
COC(=O)Cc1ccc(NC(=S)N2CCN(C)CC2)cc1,active: 5.36 µM,
CC(C)c1ccc(NC(=O)C2CCCN(S(=O)(=O)c3cccnc3)C2)cc1 (stereo not drawn),"inconclusive: 33.8 µM [inhibitor, partial curve, poor fit]",
